From patent US20200085917A1 (UNIVERSITY OF PITTSBURGH OF THE COMMONWEALTH SYSTEM OF …, published 2020)

Legend:
Experiment in all cases: GST pull-down, LC-MS/MS
Pptc7_IPI:IPI00421081.3 = target: T1, Pptc7_IPI:IPI00421081.3 (mouse, UniProt Q6NVE9 75-310, limits assumed)
T1 sequence (looked up): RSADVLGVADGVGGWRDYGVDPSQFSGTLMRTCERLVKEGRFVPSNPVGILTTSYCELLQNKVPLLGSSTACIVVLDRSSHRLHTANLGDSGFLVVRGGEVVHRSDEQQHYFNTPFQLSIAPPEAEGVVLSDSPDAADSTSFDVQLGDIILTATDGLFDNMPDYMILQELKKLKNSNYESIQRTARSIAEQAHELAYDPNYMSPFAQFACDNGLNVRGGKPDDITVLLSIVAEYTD

Idh3g_IPI:IPI00109169.1 = target: T2, Idh3g_IPI:IPI00109169.1 (mouse, UniProt P70404 40-393)
T2 sequence (looked up): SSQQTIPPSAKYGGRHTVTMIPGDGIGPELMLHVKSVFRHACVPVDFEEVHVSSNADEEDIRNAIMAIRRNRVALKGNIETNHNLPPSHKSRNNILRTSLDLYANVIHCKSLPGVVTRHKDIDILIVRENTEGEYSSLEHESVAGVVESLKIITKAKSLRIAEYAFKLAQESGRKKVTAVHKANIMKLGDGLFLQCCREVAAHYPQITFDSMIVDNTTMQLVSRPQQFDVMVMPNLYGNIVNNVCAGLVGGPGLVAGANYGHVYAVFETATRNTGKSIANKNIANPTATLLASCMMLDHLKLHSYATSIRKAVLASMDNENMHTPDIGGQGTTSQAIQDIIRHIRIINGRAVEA

Atp1a3_IPI:IPI00122048.2 = Atp1a3_IPI:IPI00122048.2 (mouse, UniProt Q6PIC6)
Letm1_IPI:IPI00131177.1 = Letm1_IPI:IPI00131177.1 (mouse, UniProt Q9Z2I0 115-738)
Sequence of Letm1_IPI:IPI00131177.1 (Q9Z2I0 115-738 limits assumed): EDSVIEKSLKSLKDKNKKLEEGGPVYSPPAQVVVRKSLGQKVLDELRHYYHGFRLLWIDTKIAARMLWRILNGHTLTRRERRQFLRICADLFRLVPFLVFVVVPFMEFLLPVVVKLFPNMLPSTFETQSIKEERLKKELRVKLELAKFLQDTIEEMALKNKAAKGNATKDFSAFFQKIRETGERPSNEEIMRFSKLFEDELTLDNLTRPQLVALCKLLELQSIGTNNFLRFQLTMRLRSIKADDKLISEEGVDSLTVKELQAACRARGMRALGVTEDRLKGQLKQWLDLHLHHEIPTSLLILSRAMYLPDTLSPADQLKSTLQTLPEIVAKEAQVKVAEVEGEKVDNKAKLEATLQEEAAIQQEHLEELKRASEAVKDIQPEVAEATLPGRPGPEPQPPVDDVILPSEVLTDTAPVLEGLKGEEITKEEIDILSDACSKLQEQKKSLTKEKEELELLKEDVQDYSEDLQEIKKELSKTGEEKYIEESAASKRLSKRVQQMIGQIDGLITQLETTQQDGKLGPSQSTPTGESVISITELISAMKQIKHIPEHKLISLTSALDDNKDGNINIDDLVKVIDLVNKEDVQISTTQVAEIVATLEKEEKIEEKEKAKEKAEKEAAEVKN
Acad8_IPI:IPI00274222.2 = target: T3, Acad8_IPI:IPI00274222.2 (mouse, UniProt Q9D7B6 21-413)
T3 sequence (looked up): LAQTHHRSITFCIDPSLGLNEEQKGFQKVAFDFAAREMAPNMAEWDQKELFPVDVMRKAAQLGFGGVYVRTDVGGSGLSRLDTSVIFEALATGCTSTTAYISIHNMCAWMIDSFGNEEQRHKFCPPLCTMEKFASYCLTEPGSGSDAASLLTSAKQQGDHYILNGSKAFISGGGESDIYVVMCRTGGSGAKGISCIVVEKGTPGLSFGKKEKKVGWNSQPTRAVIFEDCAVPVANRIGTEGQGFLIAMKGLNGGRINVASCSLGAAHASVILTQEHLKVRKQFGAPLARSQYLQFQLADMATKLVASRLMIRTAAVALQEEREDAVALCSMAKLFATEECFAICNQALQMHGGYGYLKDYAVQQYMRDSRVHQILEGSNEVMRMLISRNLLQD

Gnb3_IPI:IPI00116938.1 = Gnb3_IPI:IPI00116938.1 (mouse, UniProt Q61011 1-340)
Sequence of Gnb3_IPI:IPI00116938.1 (Q61011 whole entry): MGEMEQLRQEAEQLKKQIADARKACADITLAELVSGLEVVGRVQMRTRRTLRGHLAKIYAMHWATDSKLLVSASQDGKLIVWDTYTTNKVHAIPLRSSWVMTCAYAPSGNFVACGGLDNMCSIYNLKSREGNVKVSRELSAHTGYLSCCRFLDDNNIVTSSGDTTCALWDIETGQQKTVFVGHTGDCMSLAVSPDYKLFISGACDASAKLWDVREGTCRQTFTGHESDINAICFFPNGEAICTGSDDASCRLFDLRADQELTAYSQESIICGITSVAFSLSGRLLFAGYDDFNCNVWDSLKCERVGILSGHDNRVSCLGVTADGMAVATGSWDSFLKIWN
Rhot1_IPI:IPI00123186.4 = Rhot1_IPI:IPI00123186.4 (mouse, UniProt Q8BG51 1-631, limits assumed)
Sequence of Rhot1_IPI:IPI00123186.4 (Q8BG51 whole entry): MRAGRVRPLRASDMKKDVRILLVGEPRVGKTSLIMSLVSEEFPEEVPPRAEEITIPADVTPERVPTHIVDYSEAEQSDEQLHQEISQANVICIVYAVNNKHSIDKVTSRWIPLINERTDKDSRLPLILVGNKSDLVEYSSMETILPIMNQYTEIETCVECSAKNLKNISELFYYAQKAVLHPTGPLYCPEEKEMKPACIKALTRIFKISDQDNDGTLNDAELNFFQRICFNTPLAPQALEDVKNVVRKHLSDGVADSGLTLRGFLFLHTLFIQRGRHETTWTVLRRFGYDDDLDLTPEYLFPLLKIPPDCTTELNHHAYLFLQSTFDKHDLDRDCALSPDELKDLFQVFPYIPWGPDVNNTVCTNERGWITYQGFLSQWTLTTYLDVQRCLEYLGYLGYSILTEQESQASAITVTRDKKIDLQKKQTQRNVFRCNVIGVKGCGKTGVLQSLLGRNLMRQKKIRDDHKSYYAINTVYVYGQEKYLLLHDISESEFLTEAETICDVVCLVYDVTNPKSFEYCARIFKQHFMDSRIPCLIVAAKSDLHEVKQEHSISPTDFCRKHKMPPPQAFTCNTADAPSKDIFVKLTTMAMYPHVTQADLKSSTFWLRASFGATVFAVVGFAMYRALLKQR
Coq3_IPI:IPI00467124.2 = target: T4, Coq3_IPI:IPI00467124.2 (mouse, UniProt Q8BMS4 87-370, limits assumed)
T4 sequence (looked up): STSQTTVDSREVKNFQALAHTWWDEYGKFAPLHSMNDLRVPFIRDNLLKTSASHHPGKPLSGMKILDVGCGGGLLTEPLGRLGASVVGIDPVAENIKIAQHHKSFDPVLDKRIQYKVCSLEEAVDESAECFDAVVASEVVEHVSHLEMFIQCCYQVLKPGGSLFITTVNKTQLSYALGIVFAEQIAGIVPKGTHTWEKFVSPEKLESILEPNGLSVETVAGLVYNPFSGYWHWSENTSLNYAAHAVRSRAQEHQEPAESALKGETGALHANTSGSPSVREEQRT

Dsp_IPI:IPI00553419.3 = Dsp_IPI:IPI00553419.3 (mouse, UniProt E9Q557 1-2883, limits assumed)
Sequence of Dsp_IPI:IPI00553419.3 (E9Q557 whole entry): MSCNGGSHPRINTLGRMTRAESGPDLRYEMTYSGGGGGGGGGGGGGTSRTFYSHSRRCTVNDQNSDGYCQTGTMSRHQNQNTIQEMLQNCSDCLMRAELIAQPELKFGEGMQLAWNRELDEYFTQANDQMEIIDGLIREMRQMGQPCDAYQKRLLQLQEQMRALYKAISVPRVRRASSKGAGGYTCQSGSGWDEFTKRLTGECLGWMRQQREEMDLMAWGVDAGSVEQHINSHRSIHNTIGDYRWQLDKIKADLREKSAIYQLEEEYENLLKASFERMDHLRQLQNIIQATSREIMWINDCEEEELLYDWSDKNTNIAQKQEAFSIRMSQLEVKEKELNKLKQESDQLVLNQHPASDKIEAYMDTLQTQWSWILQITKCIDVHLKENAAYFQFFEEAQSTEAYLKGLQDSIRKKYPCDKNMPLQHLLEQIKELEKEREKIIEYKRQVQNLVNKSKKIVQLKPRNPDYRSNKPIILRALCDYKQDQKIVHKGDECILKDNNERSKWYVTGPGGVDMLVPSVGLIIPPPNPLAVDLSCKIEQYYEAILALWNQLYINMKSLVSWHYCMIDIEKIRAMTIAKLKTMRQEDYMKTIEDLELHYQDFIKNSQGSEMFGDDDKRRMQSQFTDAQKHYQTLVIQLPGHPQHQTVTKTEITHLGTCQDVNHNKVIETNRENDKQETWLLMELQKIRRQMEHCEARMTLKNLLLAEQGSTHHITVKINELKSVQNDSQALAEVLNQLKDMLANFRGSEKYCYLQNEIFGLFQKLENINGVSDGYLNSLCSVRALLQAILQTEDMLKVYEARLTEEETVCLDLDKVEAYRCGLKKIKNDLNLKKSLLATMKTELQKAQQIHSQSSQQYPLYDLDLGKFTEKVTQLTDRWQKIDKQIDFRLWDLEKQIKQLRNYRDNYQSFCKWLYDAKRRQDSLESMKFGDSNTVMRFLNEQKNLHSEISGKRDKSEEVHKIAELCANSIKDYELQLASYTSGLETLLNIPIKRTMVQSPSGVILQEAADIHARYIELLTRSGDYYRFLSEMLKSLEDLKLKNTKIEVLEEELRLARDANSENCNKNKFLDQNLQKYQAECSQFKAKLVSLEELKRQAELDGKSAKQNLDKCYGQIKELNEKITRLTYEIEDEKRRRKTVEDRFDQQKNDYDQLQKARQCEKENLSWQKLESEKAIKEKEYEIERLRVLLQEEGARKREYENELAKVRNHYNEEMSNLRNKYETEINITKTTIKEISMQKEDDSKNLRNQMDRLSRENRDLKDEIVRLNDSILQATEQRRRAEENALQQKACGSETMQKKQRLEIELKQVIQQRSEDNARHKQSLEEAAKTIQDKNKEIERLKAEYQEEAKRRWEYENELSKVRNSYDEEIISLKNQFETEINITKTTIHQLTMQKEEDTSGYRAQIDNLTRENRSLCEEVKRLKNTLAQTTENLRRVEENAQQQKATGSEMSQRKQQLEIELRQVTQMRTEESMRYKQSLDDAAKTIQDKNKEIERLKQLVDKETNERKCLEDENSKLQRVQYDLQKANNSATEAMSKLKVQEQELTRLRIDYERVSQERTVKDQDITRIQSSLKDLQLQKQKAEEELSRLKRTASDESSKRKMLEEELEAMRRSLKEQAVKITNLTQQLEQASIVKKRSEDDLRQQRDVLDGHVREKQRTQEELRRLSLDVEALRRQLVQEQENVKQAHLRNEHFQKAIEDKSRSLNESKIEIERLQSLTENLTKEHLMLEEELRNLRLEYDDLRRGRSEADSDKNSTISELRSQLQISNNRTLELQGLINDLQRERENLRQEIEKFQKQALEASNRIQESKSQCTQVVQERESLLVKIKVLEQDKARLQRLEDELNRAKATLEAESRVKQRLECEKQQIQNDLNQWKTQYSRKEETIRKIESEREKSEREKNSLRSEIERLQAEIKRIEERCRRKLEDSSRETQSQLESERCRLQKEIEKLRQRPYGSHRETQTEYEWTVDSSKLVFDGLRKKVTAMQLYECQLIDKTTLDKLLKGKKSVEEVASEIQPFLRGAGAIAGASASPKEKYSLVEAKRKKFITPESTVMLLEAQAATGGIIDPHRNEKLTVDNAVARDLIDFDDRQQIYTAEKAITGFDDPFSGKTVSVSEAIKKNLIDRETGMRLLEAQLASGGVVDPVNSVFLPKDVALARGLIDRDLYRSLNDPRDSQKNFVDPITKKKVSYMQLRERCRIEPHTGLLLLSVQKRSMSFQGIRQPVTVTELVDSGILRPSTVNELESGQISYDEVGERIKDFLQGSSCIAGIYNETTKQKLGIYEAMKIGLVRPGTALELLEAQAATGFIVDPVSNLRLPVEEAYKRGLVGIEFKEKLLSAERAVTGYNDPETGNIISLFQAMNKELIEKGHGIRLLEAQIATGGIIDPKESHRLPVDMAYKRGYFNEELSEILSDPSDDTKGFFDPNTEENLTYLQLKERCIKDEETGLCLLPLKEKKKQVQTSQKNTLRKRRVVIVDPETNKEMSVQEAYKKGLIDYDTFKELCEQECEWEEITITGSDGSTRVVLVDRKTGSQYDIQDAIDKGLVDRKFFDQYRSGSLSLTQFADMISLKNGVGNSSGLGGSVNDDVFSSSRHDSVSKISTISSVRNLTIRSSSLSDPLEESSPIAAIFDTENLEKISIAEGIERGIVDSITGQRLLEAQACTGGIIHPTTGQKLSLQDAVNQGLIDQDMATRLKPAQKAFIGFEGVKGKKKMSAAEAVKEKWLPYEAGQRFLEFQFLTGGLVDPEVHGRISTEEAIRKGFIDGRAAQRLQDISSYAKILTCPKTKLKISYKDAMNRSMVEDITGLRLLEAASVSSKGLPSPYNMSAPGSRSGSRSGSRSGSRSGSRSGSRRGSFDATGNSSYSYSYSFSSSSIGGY
Echs1_IPI:IPI00454049.4 = target: T5, Echs1_IPI:IPI00454049.4 (mouse, UniProt Q8BH95 28-290)
T5 sequence (looked up): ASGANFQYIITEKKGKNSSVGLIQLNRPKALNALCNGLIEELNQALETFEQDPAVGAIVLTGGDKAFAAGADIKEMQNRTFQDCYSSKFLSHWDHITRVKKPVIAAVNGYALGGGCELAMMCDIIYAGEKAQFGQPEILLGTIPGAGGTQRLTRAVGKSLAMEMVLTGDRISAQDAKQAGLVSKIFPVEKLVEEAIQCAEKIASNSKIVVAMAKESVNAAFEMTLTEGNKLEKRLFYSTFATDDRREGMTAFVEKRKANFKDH

Coq5_IPI:IPI00379695.2 = target: T6, Coq5_IPI:IPI00379695.2 (mouse, UniProt Q9CXI0 50-327)
T6 sequence (looked up): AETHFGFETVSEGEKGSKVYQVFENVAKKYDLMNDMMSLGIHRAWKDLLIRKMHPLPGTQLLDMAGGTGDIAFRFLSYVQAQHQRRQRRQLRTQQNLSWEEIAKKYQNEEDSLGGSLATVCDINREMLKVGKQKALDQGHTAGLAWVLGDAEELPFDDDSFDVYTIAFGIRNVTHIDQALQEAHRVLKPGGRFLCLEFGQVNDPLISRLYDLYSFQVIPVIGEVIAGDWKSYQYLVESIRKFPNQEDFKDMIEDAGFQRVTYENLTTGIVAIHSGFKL

Measured: binding result

B1: GST alone (other)
chain: not shown
notes: Negative control of the pull-downs; also called control GST
no binding: all assays above
